These results are taken from the antibiotic and cytotoxicity screens of Wong et al. (2023).

Molecules are shown by their SMILES. The list shows a part of the results.

One assay concerns HSkMC. The assay can be described thus: cytotoxicity call (relative viability < 0.9). Conditions: 10 µM.
For another assay, the system named is HepG2. Description: cytotoxicity call (relative viability < 0.9). Particulars: 10 µM.
For a further assay, the system named is S. aureus RN4220. Description: growth inhibition call (relative growth <= 0.2). Conditions: 50 µM.

As for `CC(C)NC(=O)N(C)C[C@@H]1Oc2ccc(NC(=O)CCCN(C)C)cc2CC(=O)N([C@@H](C)CO)C[C@H]1C`, the cytotoxicity call in the assay on HSkMC and with HepG2 was “inactive” throughout. For the same compound, in the assay with S. aureus RN4220, the growth inhibition call is “inactive”.

For the compound `C[C@H](CO)N1C[C@H](C)[C@H](CN(C)Cc2ccccc2)Oc2ccc(NC(=O)Nc3cccc4ccccc34)cc2C1=O`, the cytotoxicity call in the assay with HSkMC and in the assay with HepG2 was “inactive” in each case. Moreover, the growth inhibition call in the assay with S. aureus RN4220 was “inactive”.

For `O=C(CCCCCC(=O)N/N=C/[C@@H](O)[C@@H](O)[C@H](O)[C@H](O)CO)NO`, the cytotoxicity call with HSkMC and in the assay on HepG2 was “inactive” each time. The growth inhibition call in the assay on S. aureus RN4220 is “inactive”.

For `CC(=O)OC[C@H]1O[C@@H](NC(N)=O)[C@H](OC(C)=O)[C@@H](OC(C)=O)[C@@H]1OC(C)=O`, the cytotoxicity call with HSkMC and in the assay on HepG2 was “inactive” in each case. The growth inhibition call in the assay with S. aureus RN4220 was “inactive”.

With `C[C@@H]1CN([C@@H](C)CO)C(=O)Cc2cc(NC(=O)C3CCCCC3)ccc2O[C@H]1CN(C)C(=O)Nc1ccc(C(F)(F)F)cc1`, the cytotoxicity call in the assay on HSkMC and in the assay with HepG2 was “inactive” in each case. Also, the growth inhibition call with S. aureus RN4220 was “inactive”.

As to `C[C@@H]1CN([C@@H](C)CO)C(=O)Cc2cc(NC(=O)CCCCCC(=O)Nc3ccccc3N)ccc2O[C@@H]1CN(C)S(C)(=O)=O`, the cytotoxicity call in the assay on HSkMC and in the assay on HepG2 was “inactive” each time. Also, the growth inhibition call in the assay with S. aureus RN4220 is “inactive”.

In the case of `C[C@H](CO)N1C[C@H](C)[C@H](CN(C)C(=O)Nc2ccc3c(c2)OCO3)Oc2cc(C#Cc3ccncc3)ccc2S1(=O)=O`, the cytotoxicity call with HSkMC and in the assay on HepG2 was “inactive” throughout. For the same compound, in the assay on S. aureus RN4220, the growth inhibition call was “inactive”.

For the compound `CCCNCC(O)COc1ccccc1C(=O)CCc1ccccc1.Cl` (stereo unspecified), the cytotoxicity call with HSkMC was “inactive”. In the assay on HepG2, the cytotoxicity call is “active”. In addition, the growth inhibition call in the assay on S. aureus RN4220 was “inactive”.

As to `CC(C)NC(=O)N(C)C[C@H]1OCCCC[C@H](C)Oc2ccc(NC(=O)Nc3ccc(F)cc3)cc2C(=O)N([C@H](C)CO)C[C@@H]1C`, the cytotoxicity call in the assay on HSkMC and with HepG2 was “inactive” in each case. Moreover, the growth inhibition call with S. aureus RN4220 is “inactive”.

Take `C[C@@H]1CCCCO[C@@H](CN(C)C(=O)NC2CCCCC2)[C@@H](C)CN([C@@H](C)CO)C(=O)c2cc(NC(=O)Nc3ccc(C(F)(F)F)cc3)ccc2O1`: the cytotoxicity call in the assay with HSkMC and in the assay on HepG2 was “inactive” throughout. Besides, in the assay on S. aureus RN4220, the growth inhibition call is “inactive”.

With `CC(=O)C1CCC2C3CCC4=CC(=O)CCC4(C)C3CCC12C` (stereo unspecified), the cytotoxicity call in the assay on HSkMC and with HepG2 was “inactive” throughout. Further, the growth inhibition call in the assay with S. aureus RN4220 was “inactive”.

In the case of `CCOc1nc2c(ncn2C)c(=O)n1C`, the cytotoxicity call with HSkMC and in the assay on HepG2 was “inactive” in each case. The growth inhibition call in the assay on S. aureus RN4220 was “inactive”.

Take `COc1ccc(S(=O)(=O)Nc2ccc3c(c2)CC(=O)N([C@@H](C)CO)C[C@@H](C)[C@@H](CN(C)S(=O)(=O)c2ccccc2)O3)cc1`: the cytotoxicity call in the assay with HSkMC and with HepG2 was “inactive” throughout. Also, the growth inhibition call in the assay with S. aureus RN4220 is “inactive”.

`C[C@H]1CN([C@@H](C)CO)C(=O)Cc2cc(NC(=O)NC3CCCCC3)ccc2O[C@@H]1CN(C)S(=O)(=O)c1cn(C)cn1`: the cytotoxicity call in the assay with HSkMC and in the assay with HepG2 was “inactive” each time. The growth inhibition call in the assay on S. aureus RN4220 was “inactive”.

In the case of `CNC(=O)C[C@H]1CC[C@@H]2[C@H](COC[C@H](O)CN2C(=O)c2ccc3c(c2)OCO3)O1`, the cytotoxicity call with HSkMC and in the assay with HepG2 was “inactive” in each case. The growth inhibition call in the assay with S. aureus RN4220 is “inactive”.

In the case of `O=C(C[C@H]1CC[C@@H](NC(=O)Cc2ccccn2)[C@@H](CO)O1)NCCCN1CCOCC1`, the cytotoxicity call with HSkMC and in the assay with HepG2 was “inactive” throughout. Besides, the growth inhibition call with S. aureus RN4220 is “inactive”.

On to `C[C@@H]1CCCCO[C@@H](CN(C)C(=O)Nc2ccc(C(F)(F)F)cc2)[C@@H](C)CN([C@H](C)CO)C(=O)c2cc(NC(=O)CCC(F)(F)F)ccc2O1`, for which the cytotoxicity call with HSkMC and with HepG2 was “inactive” each time. Further, the growth inhibition call with S. aureus RN4220 is “inactive”.

In the case of `O=C(C[C@H]1CC[C@@H](NS(=O)(=O)c2ccccc2)[C@H](CO)O1)NCc1ccncn1`, the cytotoxicity call in the assay on HSkMC and with HepG2 was “inactive” throughout. For the same compound, the growth inhibition call in the assay on S. aureus RN4220 was “inactive”.

`Cc1ccccc1S(=O)(=O)N1C[C@@H](O)COC[C@@H]2O[C@H](CC(=O)NCCc3ccccc3)CC[C@H]21`: the cytotoxicity call in the assay with HSkMC and in the assay on HepG2 was “inactive” each time. Also, the growth inhibition call with S. aureus RN4220 is “inactive”.

`C[C@H]1CN([C@@H](C)CO)C(=O)c2cccc(NS(=O)(=O)c3cccs3)c2O[C@@H]1CN(C)S(=O)(=O)c1ccc(F)cc1`: the cytotoxicity call in the assay on HSkMC and in the assay on HepG2 was “inactive” in each case. Also, in the assay on S. aureus RN4220, the growth inhibition call is “inactive”.

As to `CO[C@H]1CN(C)C(=O)c2cc(NC(=O)C3CC3)ccc2OC[C@H](C)N(C(=O)Cc2ccccn2)C[C@H]1C`, the cytotoxicity call in the assay with HSkMC and with HepG2 was “inactive” in each case. In addition, the growth inhibition call with S. aureus RN4220 is “inactive”.

In the case of `O=C([C@H]1[C@H](CO)[C@H]2Cn3c(cccc3=O)[C@H]2N1C(=O)C1CCCC1)N1CCOCC1`, the cytotoxicity call with HSkMC and in the assay on HepG2 was “inactive” throughout. Also, the growth inhibition call with S. aureus RN4220 was “inactive”.

On to `Cc1noc(C)c1S(=O)(=O)Nc1ccc2c(c1)C(=O)N([C@@H](C)CO)C[C@H](C)[C@@H](CN(C)Cc1ccc(C(=O)O)cc1)O2`, for which the cytotoxicity call with HSkMC and in the assay on HepG2 was “inactive” each time. Besides, the growth inhibition call in the assay on S. aureus RN4220 is “inactive”.

As for `C[C@H](CO)N1C[C@H](C)[C@@H](CN(C)C(=O)Nc2ccc3c(c2)OCO3)OCc2ccccc2-c2c(n(C)c3ccccc23)C1=O`, the cytotoxicity call in the assay on HSkMC (human skeletal muscle cells) and in the assay with HepG2 was “inactive” in each case. Also, the growth inhibition call in the assay on S. aureus RN4220 was “inactive”.

For `Cc1noc(C)c1NC(=O)N(C)C[C@@H]1OCCCC[C@@H](C)Oc2ccc(NC(=O)Nc3cccc4ccccc34)cc2C(=O)N([C@@H](C)CO)C[C@H]1C`, the cytotoxicity call in the assay with HSkMC and with HepG2 was “inactive” throughout. Also, the growth inhibition call in the assay with S. aureus RN4220 is “inactive”.

Regarding `C[C@@H]1CCCCO[C@@H](CN(C)C(=O)Cc2ccccc2)[C@@H](C)CN([C@@H](C)CO)C(=O)c2cc(NS(=O)(=O)c3ccc(F)cc3)ccc2O1`, the cytotoxicity call with HSkMC and in the assay on HepG2 was “inactive” throughout. Also, the growth inhibition call in the assay on S. aureus RN4220 is “inactive”.

For `Cc1ccc(S(=O)(=O)Nc2ccc3c(c2)C(=O)N([C@H](C)CO)C[C@H](C)[C@@H](CN(C)Cc2ccc(C(=O)O)cc2)OCCCC[C@@H](C)O3)cc1`, the cytotoxicity call in the assay with HSkMC and in the assay with HepG2 was “inactive” in each case. Besides, the growth inhibition call in the assay with S. aureus RN4220 is “inactive”.
